This is an account of results in the supplement of paper PMC10338343.

± gives the standard deviation. Over roughly 3,700 sequences, “pre-steady-state target cleavage rate” has its median near 0.02; the highest 2% begin near 0.23. The entries are a selection whose mix differs from that of the whole data set.
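Further: 1 nM active piRISC with 0.1 nM target library at 33 °C single turnover.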

In this test the test system is MILI (PIWIL2) piRISC loaded with Kctd7 piRNA (26 nt). Kind of test: pre-steady-state target cleavage rate (min^-1); MIWI and MILI are mouse PIWI proteins and EfPiwi is from a freshwater sponge; tags in brackets are library labels; higher = faster piRNA-guided slicing of the target. The conditions noted are these: guide: Kctd7 piRNA 5'p-UGUUAAUCUCUCAGAGAAGGUGACAG; auxiliary factor: 500 nM mouse GTSF1. An outline of the steps: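 In HEPES–potassium acetate buffer at 33 °C, […] transcribed, DNA-blocked target RNA library was mixed with 1 nM active affinity-purified piRISC carrying one synthetic guide, with or without 500 nM GTSF1 partner protein, for 0–8 or 0–960 min. Uncleaved targets were sequenced and normalised to depth and to weakly complementary targets; three trials were pooled and k3 was capped at 0.0001 min^-1. The pre-steady-state cleavage rate followed from a burst-and-steady-state fit.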
Take UAGUGACAGUGCUUACUCUGAGAGAUUAACA: the “pre-steady-state target cleavage rate” value stood at 0.0124 ± 0.0026.
With UAGUGAGACACCUUCUCUGUGAGAUUAACA, the “pre-steady-state target cleavage rate” value worked out at 0.0419 ± 0.0068.
In the case of UAGUGUGUCACCUUCUCAGAGAGAUAAACA it was 0.0708 ± 0.021.
Regarding UAGUGACUCUCCUUCUCUCAGAGAUUAACA, the “pre-steady-state target cleavage rate” value was 0.0261 ± 0.0033.
In the case of UAGUGACAGUCCAUCUCUGUGAGAUUAACA it was 0.00917 ± 0.0019.
Regarding UAGUGUGUCACCAUCUCUCAGAGAUUAACA, the “pre-steady-state target cleavage rate” value turned out to be 0.0511 ± 0.01.
In the case of UAGUGACAGUGGAUGUCUGAGAGUUUAACA it was under 0.0001; in that of UAGUGUGUCACCUUCUCUAAGAGAUUAACA, 0.1 ± 0.015; in that of UAGUGAGUCACCAUUCUCUGAGAGAUUAACA, 0.19 ± 0.015.
In the case of UAGUGUGUCACGUUGUCUGAGAGAUUAACA it was 0.137 ± 0.01.
In the case of UAGUGUGUCAGGUUCUCUGAGAGAUUAACA it was 0.13 ± 0.012.
For UAGUGAGUCACCUUCUCUGAUAGAUUAACA, the “pre-steady-state target cleavage rate” value is 0.0547 ± 0.0083.
In the case of UAGUGACAGUCCUUCUCUGAAAGAUUAACA it was 0.0226 ± 0.0043; in that of UAGUGACAGUGGAAGAGAGAGAGAUUAUACA, under 0.0001.
In the case of UAGUGACCCACCUUCUCUGAGAGAUUAACA it was 0.286 ± 0.039; in that of UAGUGAGUCAGCUUCUCAGAGAGAUUAACA, 0.114 ± 0.0093.
In the case of UAGUGUGUCACGUUCUCUGAGUGAUUAACA it was 0.00506 ± 0.0039; in that of UAGUCUGUCACCAUUCUCUGAGAGAUUAACA, 0.16 ± 0.0092; in that of UAGUGACAGUCCUUCUCAGAGAGAUUUACA, 0.0138 ± 0.0054.
Regarding UAGUCUGUCAGCUUCUCUGAGAGAUUAUCA, the “pre-steady-state target cleavage rate” value was found to be 0.0964 ± 0.013.
UAGUGUGUCACCUUCUCUGAGAGAUUUAGA: the “pre-steady-state target cleavage rate” value was 0.0575 ± 0.02.
In the case of UAGUGACAGUCCUUCACUGUGAGAUUAACA it was 0.0194 ± 0.0046; in that of UAGUGACUCACCUUCUCUGAGAGAUAUACA, 0.0595 ± 0.012.
In the case of UAGUCUGUCACCUUCUAUGAGAGAUUAACA it was 0.0891 ± 0.014; in that of UAGUGACAGUGGAAGACUGAGAGAUUAAGCA, under 0.0001.
As to “UAGUGACAGACCUUCUCUGAGAGAUUAACA [g2:g21:cont:t1A]”, the “pre-steady-state target cleavage rate” value stood at 0.0904 ± 0.0083.
In the case of UAGUCUGUCAGGAUCUCUGAGAGAUUAAGA it was 0.0158 ± 0.0033; in that of UAGUGAGUUACCUUCUCUGAGAGAUUAACA, 0.145 ± 0.015; in that of UAGUGACACACCUUUCUCUGAGAGAUUAACA, 0.109 ± 0.011.
In the case of UAGUGACACACCAAGUCUGAGAGAUUAACA it was 0.0391 ± 0.007; in that of UAGUGUGUCACCUUCUGUGAGAGAUUAUGA, 0.00882 ± 0.0045.
In the case of UAGUGACUAACCUUCUCUGAGAGAUUAACA it was 0.0637 ± 0.009.
In the case of UAGUGUGUAACCUUCUCUGAGAGAUUAACA, the “pre-steady-state target cleavage rate” value amounted to 0.126 ± 0.018.
In the case of UAGUGAGUCACCAACUCUGAGAGAUUAUGA it was 0.0074 ± 0.0041; in that of UAGUGACAGUGCUUCUCUGAAGAUUAACA, under 0.0001.
In the case of UAGUGACACUCCUUCUCUGUGAGAUUAACA it was 0.0359 ± 0.0058; in that of UAGUCUGUCUGCUUCUCUGAGAGAUUAUGA, 0.00777 ± 0.0017.
In the case of UAGUGACAGACUUCUCUGAGAGAUUAACA it was 0.0162 ± 0.0049.
Regarding UAGUGAGUGUCCUUCUCUGAGAGAUUAACA, the “pre-steady-state target cleavage rate” value was 0.113 ± 0.013.
In the case of “UAGUGACAGUGGUUCUCUGAGAGAUUAACG [g2:g18:cont:t1G]” it was 0.0112 ± 0.0028; in that of UAGUGACAGACCUUCUCUGAGAGAUUAAGA, 0.0554 ± 0.014; in that of “UAGUGACAGUGGUUCUCUGAGAGAUUAACA [g2:g18:cont:t1A]”, 0.0125 ± 0.0013.
In the case of “UAGUGACAGUGGAAGACUGAGAGAUUAACU [g2:g14:cont:t1U]” it was under 0.0001; in that of UAGUGACAGACCUUCACUGAGAGAUUAACA, 0.0685 ± 0.0077.
In the case of UAGUGACACACCAACUCUGAGAGAUAUUGA it was under 0.0001.
UAGUGACAGUCCUACUCUGAGAGAUUAACA: the “pre-steady-state target cleavage rate” value was 0.0344 ± 0.0052.
In the case of UAGUGAGUCAGCUUCUCUGAGAGAUUAUGA it was 0.0138 ± 0.0051; in that of UAGUGAGUCACCUAUCUCUGAGAGAUUAACA, 0.161 ± 0.011.
In the case of UAGUGUGUCACCUUCUCUGAGAGAUUAAGA, the “pre-steady-state target cleavage rate” value turned out to be 0.145 ± 0.036.
In the case of UAGUGUGUCACCUUGUCUCAGAGAUUAACA it was 0.0268 ± 0.0067; in that of UAGUCUCUCACCUUCUCUGAGAGUUUAACA, 0.183 ± 0.024.
Take UAGUCUGUCAUCCUUCUCUGAGAGAUUAACA: the “pre-steady-state target cleavage rate” value came to 0.0662 ± 0.01.
In the case of UAGUGACAGUCCUUCUCUGAGAGAUCUAACA it was 0.0222 ± 0.0057.
In the case of UAGUGACUCACGUUCUCUGAGAGAUUAACA it was 0.126 ± 0.0062.
In the case of UAGUGAGUCAGCUUCUCUGAGAGAUUAAGA it was 0.0631 ± 0.017; in that of UAGUGACUCACCUUCUCUGUGAGAUAAACA, 0.0187 ± 0.0053.
As to UAGUGACAGACCAUCUCUGAGACAUUAACA, the “pre-steady-state target cleavage rate” value came to 0.00754 ± 0.0049.
In the case of UAGUGAGUCACCUUCUACUGAGAGAUUAACA it was 0.0848 ± 0.022; in that of UAGUGACACACCUUCACAGAGAGAUUAACA, 0.0278 ± 0.0089; in that of UAGUGACUCUGCUUCUCUGAGAGAUUAAGA, 0.00863 ± 0.0028.
In the case of UAGUGAGUCACCUUCUCUGAGAGGAUUAACA it was 0.129 ± 0.015.
For the sequence UAGUGACAGUGGAAGAGUGACAGAUUAACA, the “pre-steady-state target cleavage rate” value is under 0.0001.
In the case of UAGUGAGUCACCGUUCUCUGAGAGAUUAACA it was 0.185 ± 0.02; in that of UAGUGUGUCACCUACUCUGAGAGAUAAACA, 0.128 ± 0.029; in that of “UAGUGACUCACCUUCUCUGAGAGAUUAACU [g2:g23:cont:t1U]”, 0.178 ± 0.018.
In the case of UAGUGAGUCACCUUCUCUGAGAGCAUUAACA it was 0.149 ± 0.014; in that of UAGUGACAGACCUUCUGUGAGAGAAUAACA, 0.0592 ± 0.018; in that of UAGUCUGUCACCUUGUCUGAGACAUUAACA, 0.0544 ± 0.01.
In the case of UAGUCUGUCACCUUCAGUGAGAGAUUAACA it was 0.0379 ± 0.0068.
As for “UAGUGACUCACCUUCUCUGAGAGAUUAACG [g2:g23:cont:t1G]”, the “pre-steady-state target cleavage rate” value came to 0.146 ± 0.012.
